# Assay results published in the supplement of paper PMC7826260.
# The list shows a part of the results. The data describe in vitro nicking of single-stranded DNA by Rep domains for 1 h at 37 °C with 3 µM enzyme; only the middle of the 90-letter strands is printed. Numbers give uncut DNA relative to the enzyme-free pool, as log2; strong cutting gives strongly negative numbers. There is no active / inactive call. Because reads are shares of a total, they shift together; uncut strands gain when others are lost, and binding without cutting may add a little.
# Assays:
# Assay in all cases: uncleaved DNA left, log2 of reads against the no-enzyme library (log2 ratio); higher = less cleavage (more negative = more Rep cleavage of the k-mer); sequences stand for … in CTCGTCCG…ACCGGAGA
# [1] = system: T1, Rep nickase domain of Muscovy duck circovirus
# T1 sequence (Rep 1-111, printed without the tag): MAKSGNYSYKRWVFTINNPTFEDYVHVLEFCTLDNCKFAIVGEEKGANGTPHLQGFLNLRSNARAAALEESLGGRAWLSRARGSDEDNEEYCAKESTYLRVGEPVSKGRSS
# Protocol: (§1)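 A pool of 90-nt single-stranded DNAs with seven random bases just before the constant AC of the nick site (name = the seven bases) was cut by 3 µM recombinant His6-SUMO-tagged Rep nickase domain (300 nM DNA, 50 mM HEPES pH 8.0, 50 mM NaCl, 1 mM MnCl2, 1 h, 37 °C, three replicates). Uncut DNA was amplified and sequenced.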
# [2] = system: T2, Rep nickase domain of banana bunchy top virus
# T2 sequence (Rep 1-94, printed without the tag): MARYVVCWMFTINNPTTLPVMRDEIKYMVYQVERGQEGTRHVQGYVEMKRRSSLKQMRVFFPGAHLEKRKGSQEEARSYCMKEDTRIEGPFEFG
# Protocol: as §1
# [3] = system: T3, Rep nickase domain of cabbage leaf curl virus
# T3 sequence (Rep 1-116, printed without the tag): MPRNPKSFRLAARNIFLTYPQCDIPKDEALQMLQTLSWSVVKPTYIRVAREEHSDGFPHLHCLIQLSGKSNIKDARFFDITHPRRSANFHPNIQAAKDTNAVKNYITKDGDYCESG
# Protocol: as §1
# [4] = system: T4, Rep nickase domain of chickpea chlorotic dwarf virus
# T4 sequence (Rep 1-124, printed without the tag): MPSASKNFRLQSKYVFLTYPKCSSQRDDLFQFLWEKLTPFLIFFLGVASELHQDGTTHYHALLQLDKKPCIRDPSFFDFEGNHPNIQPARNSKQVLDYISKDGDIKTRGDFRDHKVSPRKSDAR
# Protocol: as §1
# [5] = system: T5, Rep nickase domain of faba bean necrotic yellows virus
# T5 sequence (Rep 1-98, printed without the tag): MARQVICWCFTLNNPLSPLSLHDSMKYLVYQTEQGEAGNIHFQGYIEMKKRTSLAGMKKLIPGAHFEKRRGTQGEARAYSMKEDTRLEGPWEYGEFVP
# Protocol: as §1
# [6] = system: T6, Rep nickase domain of maize striate mosaic virus
# T6 sequence (Rep 1-117, printed without the tag): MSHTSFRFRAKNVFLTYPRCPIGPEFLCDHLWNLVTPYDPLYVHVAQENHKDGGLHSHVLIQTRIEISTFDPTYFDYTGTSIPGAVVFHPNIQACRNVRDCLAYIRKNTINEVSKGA
# Protocol: as §1
# [7] = system: T7, Rep nickase domain of porcine circovirus 2
# T7 sequence (Rep 2-116, printed without the tag): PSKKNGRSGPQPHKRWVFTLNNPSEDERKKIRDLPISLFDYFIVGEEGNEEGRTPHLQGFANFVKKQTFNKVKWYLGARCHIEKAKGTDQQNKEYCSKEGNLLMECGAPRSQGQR
# Protocol: as §1
# [8] = system: T8, Rep nickase domain of tomato golden mosaic virus
# T8 sequence (Rep 1-124, printed without the tag): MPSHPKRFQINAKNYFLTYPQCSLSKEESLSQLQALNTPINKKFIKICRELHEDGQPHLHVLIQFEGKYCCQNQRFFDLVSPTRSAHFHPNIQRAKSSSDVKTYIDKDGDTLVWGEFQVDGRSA
# Protocol: as §1
# [9] = system: T9, Rep nickase domain of tomato yellow leaf curl virus
# T9 sequence (Rep 1-136, printed without the tag): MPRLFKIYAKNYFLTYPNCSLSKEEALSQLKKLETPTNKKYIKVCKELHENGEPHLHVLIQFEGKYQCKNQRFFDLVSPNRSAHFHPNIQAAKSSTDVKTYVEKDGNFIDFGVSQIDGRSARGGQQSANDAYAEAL
# Protocol: as §1
# [10] = system: T10, Rep nickase domain of wheat dwarf virus
# T10 sequence (Rep 1-137, printed without the tag): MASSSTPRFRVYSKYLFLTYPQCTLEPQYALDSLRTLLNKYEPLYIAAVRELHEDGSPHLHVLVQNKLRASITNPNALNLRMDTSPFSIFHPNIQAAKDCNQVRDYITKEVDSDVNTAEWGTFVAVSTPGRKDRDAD
# Protocol: as §1
Sequence,uncleaved DNA left (log2) [1],uncleaved DNA left (log2) [2],uncleaved DNA left (log2) [3],uncleaved DNA left (log2) [4],uncleaved DNA left (log2) [5],uncleaved DNA left (log2) [6],uncleaved DNA left (log2) [7],uncleaved DNA left (log2) [8],uncleaved DNA left (log2) [9],uncleaved DNA left (log2) [10]
AGCACAA,-0.103,0.102,0.186,0.564,0.000606,0.894,-0.00659,-0.000982,0.0989,0.0931
GTAGTCT,-0.0939,-0.0333,0.17,0.591,-0.121,1.67,-0.124,-0.00376,-0.1,0.0327
GGTTCGC,-0.0394,-0.14,0.158,0.573,-0.0817,0.512,0.0157,-0.0788,-0.0261,-0.0214
CGCCCTG,-0.165,-0.155,-0.191,0.382,-0.0857,1.13,-0.215,-0.184,-0.173,-0.161
TGTGACC,-0.043,-0.0363,0.0483,0.688,-0.0166,0.327,-0.00622,-0.123,-0.00799,0.00991
GATGGTC,0.0936,0.0399,0.521,0.859,-0.0345,1.16,0.0986,0.122,0.023,0.167
CGCGAAG,-0.0474,-0.0133,-0.321,-0.394,0.0689,-0.656,0.143,0.0406,-0.0366,-0.0636
ACCTGCT,-0.391,-0.031,-0.776,-1.23,0.027,-0.895,-1.42,-0.0672,0.0271,0.00538
GTGTAGT,-0.201,0.00382,0.42,0.803,0.0925,1.14,-2.27,0.21,0.278,0.183
AAAGATT,0.0736,0.0596,-1.18,-2.25,0.0779,0.776,-0.462,-0.0193,-0.181,-0.199
ACCTGTA,-0.146,-0.0356,-0.383,-0.782,-0.103,-0.728,-0.322,-0.104,-0.0977,-0.187
TCACTCC,-0.0111,-0.0284,0.152,0.124,-0.0892,0.789,0.0744,-0.0499,0.0292,0.00717
GTTAGAT,0.0203,0.153,0.427,0.973,0.0275,1.7,0.143,0.181,0.178,0.141
CACTAAC,0.00691,0.00904,-0.327,-1.7,0.0401,-0.82,-0.277,-0.0501,-0.0465,0.0201
AACGTAT,0.0179,-0.07,-0.02,-0.0515,-0.0269,0.759,-0.135,-0.0384,-0.168,-0.153
CGGTAGC,-0.0657,-0.0466,0.192,0.479,-0.0594,0.0523,0.0326,-0.0872,-0.0346,-0.0845
GAACTAA,0.183,0.266,0.377,0.503,0.135,1.23,0.203,0.119,0.287,0.207
TGGAGAG,0.0777,0.0628,0.133,0.584,0.081,-0.0365,0.154,0.118,0.0929,0.0336
GTACGGC,0.0486,0.00419,0.43,1,0.0481,1.46,0.0933,0.12,-0.0368,0.0714
GAAACAA,0.084,0.153,0.507,0.893,0.0522,1.22,0.257,0.0323,0.144,0.25
CCAAATT,-0.0864,-0.043,-0.136,-2.66,-0.157,-0.689,-0.361,-0.233,-0.207,-0.169
GGTTGAT,-0.126,-0.0856,0.353,1.18,-0.139,1.73,-0.402,-0.0224,-0.0579,0.0604
GCTATGT,-0.0352,-0.129,0.0805,0.227,-0.0866,-0.0528,-0.0409,-0.0587,-0.0074,-0.139
CCCTGCG,-0.0526,0.0795,-0.591,0.719,-0.121,-0.0915,0.276,-0.0478,-0.172,0.0869
GGCCTAA,-0.0111,0.0408,0.415,1.14,-0.0827,1.52,0.191,0.0696,0.199,0.00623
GGCGAAA,0.077,0.176,0.369,1.04,0.00948,1.41,0.13,0.16,0.143,0.196
AATCTGG,0.18,0.0992,0.287,0.452,0.257,-0.159,0.298,0.238,0.153,0.218
TCCCGCT,0.0172,-0.158,-0.307,-0.957,-0.0556,-0.839,-0.098,-0.112,0.0466,-0.0295
ATTGGCT,-0.0573,-0.101,-0.241,-0.564,-0.0418,-0.622,-0.0179,-0.0451,-0.115,-0.0505
TTTCACT,-0.293,-0.0809,0.0315,-2.15,-0.0955,-0.0945,-1.27,-0.107,-0.011,-0.114
